PubChem BioAssay AID463173 (ICCB-Longwood Screening Facility, Harvard Medical School, 2010)
The whole screen tested about 52,000 compounds, of which about 4,300 (8.3%) were called active. No stated cut-off is given here; in the data, active means survival mostly below about 52% (no sharp cut-off); inactive means mostly above about 56%. The list shows a part of the results.

test system: DeltatarO mutant; experiment: growth inhibition of S. aureus wild type versus tarO mutant, primary screen, teichoic acid synthesis inhibitors, RN4220, OD600 (AID 463173); details: OD600, 18 h, stronger effect = lower value, screened at 18.75 µg/mL (by protocol)

Row | Structure (SMILES) | survival
1 | Cc1ccc(-c2onc(C)c2C)cc1S(=O)(=O)N1CCc2ccccc21 | inactive: 86%
2 | CS(=O)(=O)N(CC(=O)O)c1ccc(Cl)cc1 | inactive: 105%
3 | Nc1cccc(Cl)c1N1CCOCC1 | inactive: 112%
4 | Cc1cccc(CCNC(=O)CCc2c(C)nc3c(-c4ccc(F)cc4)c(C)nn3c2C)c1 | inactive: 73%
5 | CN1CCN(c2ccc(-c3nc(-c4ccccc4)no3)cc2[N+](=O)[O-])CC1 | active: 41%
6 | COC(=O)c1ccc(NC(=O)C(c2ccccc2)N2Cc3ccccc3C2=O)cc1 (stereo unspecified) | inactive: 72%
7 | Cc1nc(-c2ccc(Cl)cc2)sc1CCNC(=O)C(=O)Nc1ccccc1C#N | inactive: 80%
8 | COc1ccc(NC(=O)Cn2ncc3c4ccccc4n(Cc4ccccc4)c3c2=O)cc1OC | inactive: 87%
9 | COc1cc(NS(=O)(=O)c2ccc3c(c2)OCC(C(=O)N2CCCC2)O3)cc(OC)c1 (stereo unspecified) | inactive: 78%
10 | COc1ccccc1-c1ncnn1-c1sc2c(c1C#N)CCCCC2 | active: -2%
11 | Cc1ccc(NC(=O)Cn2nc(-c3ccc(Cl)cc3)c3ccccc3c2=O)cc1 | active: 38%
12 | CCN(CC)c1ccc(NC(=O)C2CCCN(S(=O)(=O)c3ccc4c(c3)oc(=O)n4C)C2)c(C)c1 (stereo unspecified) | inactive: 113%
13 | Nc1ccccc1-n1ccnc1 | inactive: 71%
14 | COc1ccccc1CSc1nc2n(n1)C(c1ccccc1)C(C(=O)Nc1ccc(C)cc1)=C(C)N2 (stereo unspecified) | inactive: 65%
15 | CCOC(=O)c1c(S(=O)(=O)N2CCN(c3cc(Cl)ccc3C)CC2)c(C)n(C)c1C | inactive: 123%
16 | Cc1ccc(NC(=O)C2CCCN(S(=O)(=O)c3ccc(C)cc3)C2)cc1 (stereo unspecified) | inactive: 71%
17 | CCOc1ccc(N(CC)C(=O)c2cc3c(=O)oc4ccccc4c3s2)cc1 | active: 38%
18 | CCOc1ccc(CN2CCN(S(=O)(=O)c3ccc(Cl)cc3)CC2)cc1 | active: 27%
19 | O=C(NC1CCN(C(=O)NCc2ccccc2)CC1)c1ccco1 | inactive: 84%
20 | O=c1oc2c(F)cc(F)cc2cc1S(=O)(=O)c1ccc(F)cc1 | inactive: 60%
21 | Cc1ccc(Cc2nc3ccccc3nc2SCC(=O)N2CCCCC2)cc1 | inactive: 78%
22 | Cc1nc(C)c(CCNS(=O)(=O)c2ccc(C)c(C)c2)s1 | inactive: 97%
23 | CCOc1ccccc1NC(=O)c1c(NCc2ccc(C)o2)sc2c1CCCCC2 | inactive: 95%

Row | Structure (SMILES) | survival
24 | CC(C)C(=O)CC(c1ccccc1)C1C(=O)NC(=O)NC1=O (stereo unspecified) | inactive: 71%
25 | COC(=O)c1ccccc1NC(=O)CCCn1nc(C)c2sc3ccccc3c2c1=O | inactive: 81%
26 | COc1cccc(NC(=O)c2oc3ccccc3c2NC(=O)COc2ccccc2C)c1 | inactive: 122%
27 | CC1=C(C(=O)Nc2ccc(C)cc2C)C(CC(C)C)n2nc(SCc3ccccc3C)nc2N1 (stereo unspecified) | inactive: 93%
28 | Cc1oc(-c2ccccc2F)nc1CN1CCC(C(=O)NCCc2ccc(Cl)cc2)CC1 | inactive: 71%
29 | O=C(Cn1cc(S(=O)(=O)c2ccc(F)cc2)c(=O)c2cc3c(cc21)OCO3)Nc1ccccc1 | inactive: 68%
30 | Cc1ccn2c(=O)c(C(=O)Nc3ccc(F)c(C(F)(F)F)c3)cnc2c1 | inactive: 94%
31 | N#CCC(=O)Nc1nccs1 | inactive: 89%
32 | Cc1cccc(NC(=O)C(=O)NCC(c2cccnc2)N2CCc3ccccc32)c1C (stereo unspecified) | inactive: 53%
33 | CCOC(=O)c1cc(-c2ccccc2)n(CCC(=O)Nc2ccc(OC)c(Cl)c2)c1C | inactive: 92%
34 | O=C(O)C12CC3CC(CC(S)(C3)C1)C2 | inactive: 59%
35 | Cc1ccccc1-c1nc2c(c(SCc3cccc(Cl)c3)n1)Cc1c(CO)cnc(C)c1O2 | inactive: 60%
36 | Cc1cc(NC(=O)CN(C)S(=O)(=O)c2ccc3c(c2)CCCC(=O)N3)ccc1Br | inactive: 81%
37 | CCc1ccc(NC(=O)Cn2c(=O)n(CCCC(=O)NCc3ccccc3OC)c(=O)c3ccccc32)cc1 | inactive: 135%
38 | COc1cc(-c2nc(Cn3nnc(C(=O)Nc4ccccc4C)c3C)c(C)o2)cc(OC)c1OC | inactive: 58%
39 | O=c1c2sc3ccccc3c2n(Cc2ccc(F)cc2)c(=O)n1Cc1ccccc1 | inactive: 137%
40 | CCc1cccc(CC)c1NC(=O)CCS(=O)(=O)c1ccc(Br)cc1 | inactive: 117%
41 | CCOc1ccc(-c2cc(C(=O)NCc3ccc(OCC)c(OC)c3)[nH]n2)cc1 | inactive: 85%
42 | Cc1cc(C)n2nc(SCC(=O)Nc3ccc(O)cc3)nc2n1 | inactive: 67%
43 | Cc1ccc(NC(=O)CSc2ncccc2C(=O)Oc2ccccc2Cl)cc1Cl | inactive: 94%
44 | COc1ccc2[nH]cc(CCNC(=O)Nc3c(C)cccc3C)c2c1 | inactive: 99%
45 | N=c1c2c3c(sc2ncn1CCCn1ccnc1)CCCCC3 | inactive: 116%
46 | CCCCC(=O)Nc1cc(-c2nc3ccccc3o2)ccc1OC | active: 7%

Row | Structure (SMILES) | survival
47 | CCOc1ccc(CC(=O)NCCS(=O)(=O)N2CCN(c3ccccc3OC)CC2)cc1 | inactive: 84%
48 | CCOC(=O)c1noc2ncn(CC(=O)Nc3ccc(OC)c(Cl)c3)c(=O)c12 | inactive: 77%
49 | COc1ccc(C)cc1NC(=O)c1ccc2c(c1)N(Cc1cccc(Cl)c1)C(=O)c1ccccc1S2=O (stereo unspecified) | inactive: 92%
50 | Cc1ccc(C)c(NC(=O)c2ccc(=O)n(Cc3ccc(F)cc3)c2)c1 | inactive: 94%
51 | Clc1cccc(N2CCN(c3nc4ccccc4c4nc(-c5cccnc5)nn34)CC2)c1 | inactive: 82%
52 | CC1Oc2ccccc2N(CC(=O)NC2CC2)C1=O (stereo unspecified) | inactive: 75%
53 | Cc1ccc(-c2nn(-c3cccc([N+](=O)[O-])c3)c3c2cnc2ccc(F)cc23)cc1 | inactive: 75%
54 | Cc1cccc(Nc2nc(Nc3cccc(C)c3)nc(N3CCOCC3)n2)c1 | active: 1%
55 | Cc1cc2c(n1-c1ccc(C(=O)NCC(C)c3ccccc3)cc1)CCCC2 (stereo unspecified) | inactive: 84%
56 | Cc1sc(C2C(C#N)=C(N)N(c3cccc(Cl)c3)C3=C2C(=O)CCC3)cc1CN1CCOCC1 (stereo unspecified) | inactive: 85%
57 | Cc1ccc(CNC(=O)c2cc(S(=O)(=O)N3CCCC(C)C3)cn2C)cc1 (stereo unspecified) | inactive: 94%
58 | O=S(=O)(NCc1ccc(F)cc1)c1ccc2[nH]c3c(c2c1)CCCCC3 | inactive: 61%
59 | CC(C)CCNC(=O)c1ccc(Cn2c(=O)c3cccn3c3cccnc32)cc1 | inactive: 64%
60 | C#CCSc1nc2sc3c(c2c(=O)n1-c1cccc(OC)c1)CCN(C(C)=O)C3 | inactive: 28%
61 | Cc1ccc(S(=O)(=O)Nc2ccc(-c3ccc(N4CCCCCC4)nn3)cc2)cc1C | inactive: 119%
62 | C=CCNC(=O)c1c(O)c2cccc3c2n(c1=O)CCC3 | inactive: 102%
63 | CCOC(=O)c1ccc(-c2ccc(/C=C(\C#N)C(=O)Nc3c(C)cccc3Cl)o2)cc1 | inactive: 61%
64 | COc1cc(Cl)c(NC(=O)c2cc(S(=O)(=O)N3CCOCC3)cn2C)c(OC)c1 | inactive: 76%
65 | CCOC(=O)C(C)ON1C(=O)c2ccccc2C1=O (stereo unspecified) | inactive: 86%
66 | CC(C(=O)O)N1C(=O)NC2NC(=O)NC21 (stereo unspecified) | active: 54%
67 | CCc1nn2c(-c3ccco3)ccnc2c1-c1ccc(F)cc1 | inactive: 81%
68 | COc1ccc(-c2n[nH]c3c2C(c2ccc(Cl)cc2Cl)NC3=O)cc1 (stereo unspecified) | active: -12%
69 | COc1ccc(-n2c(=O)c3c(c4cc(OC)ccc4n3C)n(CC(=O)NCC3CCCO3)c2=O)cc1 (stereo unspecified) | inactive: 62%

Row | Structure (SMILES) | survival
70 | CCN(CCCNC(=O)c1ccc(Sc2ccc(C)cc2)c(NC(C)=O)c1)c1cccc(C)c1 | inactive: 80%
71 | CCOc1cccc(C(=O)Nc2ccc3oc(-c4ccc(C(C)(C)C)cc4)nc3c2)c1 | active: 46%
72 | COc1ccc(NC(=O)Cn2c(=O)n(-c3cccc(C)c3)c(=O)c3c2c2cc(C)ccc2n3C)cc1OC | inactive: 79%
73 | Cc1ccc2oc(-c3ccc(C)c(NC(=O)c4ccc5c(c4)OCCO5)c3)nc2c1 | inactive: 48%
74 | CC(CCO)Nc1nc2c(c(=O)n(C)c(=O)n2C)n1Cc1ccc(Br)cc1 (stereo unspecified) | inactive: 140%
75 | Cc1ccc(F)cc1NC(=O)CCc1c(C)nn(-c2ccc(N3CCCCC3)nn2)c1C | inactive: 69%
76 | Cc1ccc(S(=O)(=O)c2nnn(CC(=O)Nc3ccccc3C)c2N)cc1C | inactive: 91%
77 | CCC(=O)Nc1ccc2nc(SCCOc3cccc(C)c3)sc2c1 | inactive: 104%
78 | CC(C)(C)NC(=O)Cn1cc(S(=O)(=O)Cc2ccc(F)cc2)c2ccccc21 | inactive: 67%
79 | COCCn1c(SCC(=O)c2ccc(OC)cc2)nc2cc(C(=O)NC3CCCC3)ccc2c1=O | inactive: 94%
80 | CCCOc1ccc(-c2nonc2NC(=O)COc2ccc(C)cc2)cc1OCCC | inactive: 112%
81 | CCOC(=O)CNC(c1ccccc1)c1cc(Br)ccc1NC(=O)c1ccc(Cl)cc1 (stereo unspecified) | inactive: 71%
82 | CC(=O)c1c(C)oc2c(Cl)cc(NS(=O)(=O)c3cc(C)c(C)cc3C)cc12 | inactive: 157%
83 | COC(=O)c1cc2oc(C)cc2n1Cc1cccc(Cl)c1 | active: -8%
84 | Cc1ccc(-n2c(=O)c3c(c4cc(C)ccc4n3C)n(CC(=O)NCCC3=CCCCC3)c2=O)cc1 | inactive: 55%
85 | O=c1c2oc3ccccc3c2n(Cc2cccc(Cl)c2)c(=O)n1Cc1ccc2c(c1)OCO2 | inactive: 88%
86 | COc1ccccc1OCC(=O)NCC1(N2CCOCC2)CCCCC1 | inactive: 90%
87 | FC(F)(F)c1nnc2c3ccccc3nc(-c3ccccc3)n12 | active: 29%
88 | O=C(NCc1cccc(Cl)c1)c1ccc(CS(=O)Cc2ccccc2Cl)o1 (stereo unspecified) | inactive: 63%
89 | CCCCSCc1ccc(C(=O)O)o1 | inactive: 77%
90 | O=C(CCC1N=C2c3ccccc3N=C(SCc3ccccc3Cl)N2C1=O)NCc1cccs1 (stereo unspecified) | inactive: 79%
91 | CCOc1ccc(OCC)c(NC(=O)c2cnc3c(-c4ccccc4)c(C)nn3c2C)c1 | inactive: 91%
